Assay results reported in paper PMC4336329 (PLoS ONE, 2015).
The campaign covered roughly 310,000 compounds. About 14,000 (4.5%) showed an effect of 50% or more. The effect is printed as a negative number. Some of the results follow.
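Note: peak tail current of the secondary pulse compared with the same well before compound.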

Each compound was assayed against human ether-à-go-go-related gene (hERG) potassium channel (human, UniProt Q12809) (assay: primary screen, population patch clamp on CHO cells stably expressing hERG).
human ether-à-go-go-related gene (hERG) potassium channel, sequence (Q12809 whole entry, looked up): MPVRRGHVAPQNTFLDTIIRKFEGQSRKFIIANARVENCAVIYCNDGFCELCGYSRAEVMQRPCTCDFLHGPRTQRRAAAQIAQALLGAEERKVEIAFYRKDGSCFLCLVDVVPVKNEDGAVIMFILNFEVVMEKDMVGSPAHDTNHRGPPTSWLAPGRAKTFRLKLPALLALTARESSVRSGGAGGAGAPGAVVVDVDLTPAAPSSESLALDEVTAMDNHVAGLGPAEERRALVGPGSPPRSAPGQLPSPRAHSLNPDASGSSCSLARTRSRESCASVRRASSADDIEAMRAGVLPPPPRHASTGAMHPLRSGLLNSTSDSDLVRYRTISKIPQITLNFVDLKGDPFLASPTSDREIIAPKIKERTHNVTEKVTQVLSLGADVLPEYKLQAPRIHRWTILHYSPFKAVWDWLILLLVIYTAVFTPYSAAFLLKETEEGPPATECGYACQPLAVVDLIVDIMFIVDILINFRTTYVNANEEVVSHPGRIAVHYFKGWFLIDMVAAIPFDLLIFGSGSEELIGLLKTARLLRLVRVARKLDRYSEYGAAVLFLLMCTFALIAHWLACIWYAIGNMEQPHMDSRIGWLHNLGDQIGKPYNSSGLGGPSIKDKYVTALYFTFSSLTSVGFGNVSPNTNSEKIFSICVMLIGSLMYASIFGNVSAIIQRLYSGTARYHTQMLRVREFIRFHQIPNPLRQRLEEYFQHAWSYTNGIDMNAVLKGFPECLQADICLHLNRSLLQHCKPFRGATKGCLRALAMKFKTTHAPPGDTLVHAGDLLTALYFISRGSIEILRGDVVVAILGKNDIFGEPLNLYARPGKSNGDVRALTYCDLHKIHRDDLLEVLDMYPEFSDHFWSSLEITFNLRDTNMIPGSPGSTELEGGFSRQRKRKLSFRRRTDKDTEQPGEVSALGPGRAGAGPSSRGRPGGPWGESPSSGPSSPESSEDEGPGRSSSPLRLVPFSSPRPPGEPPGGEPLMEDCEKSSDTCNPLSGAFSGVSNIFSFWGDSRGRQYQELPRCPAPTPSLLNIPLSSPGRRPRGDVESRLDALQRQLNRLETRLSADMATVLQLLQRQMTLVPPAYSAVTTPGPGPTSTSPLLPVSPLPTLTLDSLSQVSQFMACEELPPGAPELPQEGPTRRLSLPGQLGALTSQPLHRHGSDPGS
For C#CCOCCOCCOCCNc1nc(N2CCN(C(=O)[C@H](Cc3ccc(O)cc3)n3cc([C@@H](N)CC(C)C)nn3)CC2)nc(N2CCN(C(=O)[C@H](Cc3ccc(O)cc3)n3cc([C@@H](N)CC(C)C)nn3)CC2)n1.Cl, the “hERG current change (%, negative = inhibition) at 10uM” value was 1.28%. For NC(=O)CSc1nc2cc([N+](=O)[O-])ccc2n1-c1cccc(C(F)(F)F)c1, the “hERG current change (%, negative = inhibition) at 10uM” value was -69.9%. CC12C(=O)N(c3ccccc3)C(=O)C1C(c1ccccc1)N1CCCN12 (centres unmarked) was tested, and the “hERG current change (%, negative = inhibition) at 10uM” value was 13%. In the case of CCOC(=O)c1sc(/N=C/c2c(C)[nH]n(-c3ccccc3)c2=O)c(C#N)c1C, the “hERG current change (%, negative = inhibition) at 10uM” value is reported as -9.84%. For O=C(N/N=C/c1ccc(OC(=O)c2cccs2)cc1)c1ccc(F)cc1, the “hERG current change (%, negative = inhibition) at 10uM” value was 10%. For O=C(c1cccc(S(=O)(=O)Nc2ccc(Br)cc2)c1)N1CCC1, the “hERG current change (%, negative = inhibition) at 10uM” value was 2%. For COc1ccc(Sc2cnn(-c3ccccc3)c(=O)c2Cl)cc1, the “hERG current change (%, negative = inhibition) at 10uM” value was -15.7%. CCCOc1ccc(C2=NNC(c3cccs3)=Nc3ccc(OC)cc32)cc1 was tested, and the “hERG current change (%, negative = inhibition) at 10uM” value was 1.25%. For COc1cc(NC(=O)c2cc3cccc(OC)c3o2)cc(C(=O)Nc2cccc(C(F)(F)F)c2)c1, the “hERG current change (%, negative = inhibition) at 10uM” value was 14.8%. With CC(=O)Nc1ccc(C(=O)N/N=C/C2CC3C=CC2C3)cc1 (centres unmarked) the “hERG current change (%, negative = inhibition) at 10uM” value was 16%. For O=C(C(c1ccccc1)c1ccccc1)N1CCN(CCN2C(=O)c3cccc4cccc(c34)C2=O)CC1, the “hERG current change (%, negative = inhibition) at 10uM” value was -4.74%. For O=C(Nc1cccnc1)c1ccc(Br)c(S(=O)(=O)N2CCCC2)c1, the “hERG current change (%, negative = inhibition) at 10uM” value was 22.1%. In the case of CCOC(=O)CNC=C(C(=O)OCC)C(=O)OCC, the “hERG current change (%, negative = inhibition) at 10uM” value is reported as 16.7%. With Cc1cccc(NC(=S)NC(C)CCc2ccccc2)c1 (centres unmarked) the “hERG current change (%, negative = inhibition) at 10uM” value was -4.89%. With CCNC(=O)Cc1ccc(NS(=O)(=O)c2ccc(F)cc2)cc1 the “hERG current change (%, negative = inhibition) at 10uM” value was -2.15%. In the case of Cc1cccc(N2CCN(C(=O)c3ccc(CS(=O)Cc4ccc(Cl)cc4)o3)CC2)c1C (centres unmarked), the “hERG current change (%, negative = inhibition) at 10uM” value is reported as -57%. With CCN(CC)S(=O)(=O)c1ccc(C)c(C)c1 the “hERG current change (%, negative = inhibition) at 10uM” value was -3.69%. With CCOP(=O)(OCC)C(NC(=O)Nc1ccc(Cl)c(Cl)c1)C(N)=O (centres unmarked) the “hERG current change (%, negative = inhibition) at 10uM” value was 12.7%. In the case of Cc1ccc(N(CC(=O)NCCc2ccccc2)C(=O)c2csnn2)cc1, the “hERG current change (%, negative = inhibition) at 10uM” value is reported as -15.4%. For Cc1[nH]n(-c2ccc(Cl)cc2)c(=O)c1N=Nc1cccnc1, the “hERG current change (%, negative = inhibition) at 10uM” value was -5.19%. In the case of CC(C)n1c(O)c(N=Nc2ccccn2)c2ccccc21, the “hERG current change (%, negative = inhibition) at 10uM” value is reported as -8.08%. With Cc1ccccc1CNC(=O)CCc1ccccc1 the “hERG current change (%, negative = inhibition) at 10uM” value was 11.7%. With CC(=O)c1ccc(C(=O)N2CCCC(N3CCN(c4ccc(F)cc4)CC3)C2)s1 (centres unmarked) the “hERG current change (%, negative = inhibition) at 10uM” value was -63.7%. For O=C(NCCNc1ccc([N+](=O)[O-])cc1)c1cccc(Br)c1, the “hERG current change (%, negative = inhibition) at 10uM” value was -1.98%. For CC(c1ccccc1C(O)c1ccccc1)N(C)C.Cl (centres unmarked), the “hERG current change (%, negative = inhibition) at 10uM” value was 2.22%. For COc1ccc(/C=N/NC(=S)N[C@H]2CC3CCC2C3)cc1 (some centres unmarked), the “hERG current change (%, negative = inhibition) at 10uM” value was 7.65%. For Cc1cc(C)c(C)c(C(=O)COC(=O)CNC(=O)CNC(=O)c2ccco2)c1C, the “hERG current change (%, negative = inhibition) at 10uM” value was 0.304%. For COc1ccc(CCC(=O)Nc2ccc3c(c2)OCO3)cc1, the “hERG current change (%, negative = inhibition) at 10uM” value was 2.6%. For COc1ccc(C(O)P(=O)(OC(C)C)OC(C)C)c(OC)c1 (centres unmarked), the “hERG current change (%, negative = inhibition) at 10uM” value was 22.6%. For C=CCNC(=O)COc1ccc(Br)cc1Cl, the “hERG current change (%, negative = inhibition) at 10uM” value was -20.6%. With O=C(CSc1nnc2c3ccccc3c3ccccc3c2n1)Nc1ccccc1F the “hERG current change (%, negative = inhibition) at 10uM” value was 6.85%. For CCCC(=O)Nc1ccc(-c2ccc(NC(=O)CCC)cc2)cc1, the “hERG current change (%, negative = inhibition) at 10uM” value was 3.77%. With Br.O=C(CN1CCCCC1CO)c1ccc(OC(F)F)cc1 (centres unmarked) the “hERG current change (%, negative = inhibition) at 10uM” value was -68.2%. COc1ccc(S(=O)(=O)N2CCN(C)CC2)cc1Br was tested, and the “hERG current change (%, negative = inhibition) at 10uM” value was -0.633%. In the case of CCOc1ccc(CCNC(=O)C2CCN(c3nnc(-n4cccc4)s3)CC2)cc1OCC, the “hERG current change (%, negative = inhibition) at 10uM” value is reported as -35.7%. In the case of CCN1CC=C2C(C#N)=C(N)C(C#N)(C#N)C(c3cc(Cl)ccc3Cl)C2C1 (centres unmarked), the “hERG current change (%, negative = inhibition) at 10uM” value is reported as -29.2%. For CCOc1ccccc1-c1noc(CCC(=O)NC2CCCCC2)n1, the “hERG current change (%, negative = inhibition) at 10uM” value was 5.71%. CC1CCN(S(=O)(=O)c2nnc(NC(=O)COc3ccccc3)s2)CC1 was tested, and the “hERG current change (%, negative = inhibition) at 10uM” value was 23.2%. CCC(=O)N(C)CCc1cc2c(c(OC)c1/C=N/NS(=O)(=O)c1ccc(C)cc1)OCO2 was tested, and the “hERG current change (%, negative = inhibition) at 10uM” value was -8.34%. CC(=O)Nc1ccc(/C=N/NC(=S)NC(C)C)cc1 was tested, and the “hERG current change (%, negative = inhibition) at 10uM” value was 21.3%. In the case of Cc1ccc2c(c1)C1CN(C)CCC1N2C(=O)COc1ccc(N(C)C(=O)c2ccccc2)cc1 (centres unmarked), the “hERG current change (%, negative = inhibition) at 10uM” value is reported as -11.6%. CCSc1nc2c(c(=O)[nH]1)C(c1ccncc1)C(C(=O)OC)=C(C)N2 (centres unmarked) was tested, and the “hERG current change (%, negative = inhibition) at 10uM” value was 3.28%. CCOC(=O)Cc1csc(NC(=O)c2cc(=O)c3ccccc3o2)n1 was tested, and the “hERG current change (%, negative = inhibition) at 10uM” value was -12.3%. With Cc1ccc(S(=O)(=O)NC(Cc2ccccc2)C(=O)NN)cc1 (centres unmarked) the “hERG current change (%, negative = inhibition) at 10uM” value was 10%.
